Reference: US20220024991A1 (GENOME PROTECTION, published 2022)

Assays:
[1] = target: T1, human TLR5 (293-hTLR5-LacZ reporter cells) (human, UniProt O60602 21-858); test: cell-based or functional assay
[2] = target: T1, human TLR5 (293-hTLR5-LacZ reporter …); test: cell-based or functional assay; remark: listed apart in the source

T1 sequence (O60602 21-858): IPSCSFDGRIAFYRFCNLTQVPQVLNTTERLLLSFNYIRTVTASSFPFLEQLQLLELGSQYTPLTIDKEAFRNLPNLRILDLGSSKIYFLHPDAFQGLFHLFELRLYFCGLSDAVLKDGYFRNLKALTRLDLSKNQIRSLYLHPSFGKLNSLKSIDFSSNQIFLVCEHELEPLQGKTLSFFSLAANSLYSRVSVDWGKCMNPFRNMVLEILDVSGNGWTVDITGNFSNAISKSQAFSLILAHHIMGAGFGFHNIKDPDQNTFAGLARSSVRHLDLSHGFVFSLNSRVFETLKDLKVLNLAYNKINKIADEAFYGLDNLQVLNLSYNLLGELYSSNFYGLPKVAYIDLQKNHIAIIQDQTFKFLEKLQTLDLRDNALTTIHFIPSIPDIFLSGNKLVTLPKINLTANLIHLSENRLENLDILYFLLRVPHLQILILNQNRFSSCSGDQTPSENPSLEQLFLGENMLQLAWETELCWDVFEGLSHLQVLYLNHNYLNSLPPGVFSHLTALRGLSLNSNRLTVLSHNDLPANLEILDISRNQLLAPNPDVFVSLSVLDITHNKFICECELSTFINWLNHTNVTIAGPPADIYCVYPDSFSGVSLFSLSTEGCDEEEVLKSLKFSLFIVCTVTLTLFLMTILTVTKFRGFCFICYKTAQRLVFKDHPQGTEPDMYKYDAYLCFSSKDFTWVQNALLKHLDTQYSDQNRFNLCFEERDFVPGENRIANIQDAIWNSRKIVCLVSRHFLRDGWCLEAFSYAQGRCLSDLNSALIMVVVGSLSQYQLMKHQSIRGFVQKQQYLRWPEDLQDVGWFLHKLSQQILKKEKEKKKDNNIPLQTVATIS

B1: 491TEMX (ligand)
chain: MSGLRINSAKDDAAGQAAANRATSNIKGLTQASRNAADGISIAQTTEGALNEINNNLQRVRELSVQATAGANADAALKAIQAEIQQRLEEIDRVSQQTQAAAVKVLSQDNAMAIQVGANDGAAITIDLQKIDVKSLGLDGFNVNSPGSTANPLASIDSALSKVDAVRSSLGAIQNRFDSAITNLGNTVTNLNSARSRIEDADYATEVSQMSKAQILDQAGTSTLAQLVPRGSHHHHHHG
- EC50, ng/ml (NF-κB reporter enzyme activity) [1]: 0.114 ng/mL
- EC50, pM (NF-κB reporter enzyme activity) [1]: 4.35 pM
- Mut. EC50/EC50 33MX [1]: 2.66 ratio
- Mut. EC50/EC50 CBLB502 [1]: 4.73 ratio
- EC50 [2]: 0.188 ng/mL
- EC59(TEM)/EC50(33MX) [2]: 2.9 ratio
